Data from patent US4518581A, “Imparting low- or anti-cariogenic property to orally-usable products” (Kabushiki Kaisha Hayashibara Seibutsu Kagaku Kenkyujo, priority 1981, dated 1985).
The name of at least one read-out is uncertain. At least one structure is not confirmed: it was looked up by name or label, or the drawing left a doubt.

Biological target: T1, water-insoluble glucan producing enzyme (Streptococcus downei, UniProt P27470)
T1 construct: endogenous in cells; host or cells: Streptococcus mutans 6715 strain (today S. sobrinus), culture supernatant, ammonium sulfate precipitate, dialyzed
Assay: Effect of saccharides on formation of water-insoluble glucan from sucrose (Experiment 3)
Type: biochemical, Streptococcus mutans 6715 strain
Details: 1 ml 4 w/v % sucrose plus 1 ml 4 w/v % saccharide, 0.02 units enzyme, 37° C., 16 hours
Experimental: After completion of the cultivation, the culture was separated into cell precipitant and supernatant. Thereafter, to the supernatant was added with ammonium sulfate to give 60% saturation, and the resultant precipitant was dialyzed against 0.1M phosphate buffer (pH 7.2) to obtain an aqueous solution containing the enzyme.
The titers of the enzyme were assayed as follows: A mixture solution, consisting of 1 ml of 0.2M aqueous sucrose solution, 1 ml of water, 1 ml of 0.1M phosphate buffer containing 0.05 w/v % NaN3, and 0.5 ml of the enzyme solution (below 0.05 units), is incubated at 37° C. for 9 hours, followed by centrifugation of the reaction mixture. The resultant precipitant is mixed with 4 ml of 0.5N sodium hydroxide solution, and then incubated at this temperature for an additional one hour to dissolve the precipitant. The amount of water-insoluble glucan formed during the enzymatic reaction is then measured. One unit of the enzyme is defined as the amount of enzyme that transfers 1 μmole glucose from sucrose to the water-insoluble glucan in one minute.
Effects of some saccharides on the formation of water-insoluble glucan were tested: Water-insoluble glucan formation and inhibition thereof were determined according to the enzyme assay method as described in EXPERIMENT 1, except that the mixture solution contained sucrose, or sucrose and each saccharide as listed in TABLE I. The experiment was carried out as follows: A mixture solution, consisting of 1 ml of 4 w/v % aqueous sucrose solution, 1 ml of 4 w/v % aqueous solution of each saccharide as listed in TABLE I, 1.5 ml of 0.1M phosphate buffer containing 0.05 w/v % NaN3, and 0.5 ml of the enzyme solution (0.02 units), was incubated at 37° C. for 16 hours, and the water-insoluble glucan formation in the reaction mixture was determined according to the enzyme assy method.
In a control experiment, 1 ml of the above described saccharide solution was replaced with the same amount of water.
The inhibition degree was calculated with following equation:
Inhibition degree (%)=100-A/B×100
where A and B are respective amounts of the water-insoluble glucan formed (μg/ml) when the mixture solution contained sucrose or sucrose and each of the saccharides.

T1 sequence (P27470 39-1592): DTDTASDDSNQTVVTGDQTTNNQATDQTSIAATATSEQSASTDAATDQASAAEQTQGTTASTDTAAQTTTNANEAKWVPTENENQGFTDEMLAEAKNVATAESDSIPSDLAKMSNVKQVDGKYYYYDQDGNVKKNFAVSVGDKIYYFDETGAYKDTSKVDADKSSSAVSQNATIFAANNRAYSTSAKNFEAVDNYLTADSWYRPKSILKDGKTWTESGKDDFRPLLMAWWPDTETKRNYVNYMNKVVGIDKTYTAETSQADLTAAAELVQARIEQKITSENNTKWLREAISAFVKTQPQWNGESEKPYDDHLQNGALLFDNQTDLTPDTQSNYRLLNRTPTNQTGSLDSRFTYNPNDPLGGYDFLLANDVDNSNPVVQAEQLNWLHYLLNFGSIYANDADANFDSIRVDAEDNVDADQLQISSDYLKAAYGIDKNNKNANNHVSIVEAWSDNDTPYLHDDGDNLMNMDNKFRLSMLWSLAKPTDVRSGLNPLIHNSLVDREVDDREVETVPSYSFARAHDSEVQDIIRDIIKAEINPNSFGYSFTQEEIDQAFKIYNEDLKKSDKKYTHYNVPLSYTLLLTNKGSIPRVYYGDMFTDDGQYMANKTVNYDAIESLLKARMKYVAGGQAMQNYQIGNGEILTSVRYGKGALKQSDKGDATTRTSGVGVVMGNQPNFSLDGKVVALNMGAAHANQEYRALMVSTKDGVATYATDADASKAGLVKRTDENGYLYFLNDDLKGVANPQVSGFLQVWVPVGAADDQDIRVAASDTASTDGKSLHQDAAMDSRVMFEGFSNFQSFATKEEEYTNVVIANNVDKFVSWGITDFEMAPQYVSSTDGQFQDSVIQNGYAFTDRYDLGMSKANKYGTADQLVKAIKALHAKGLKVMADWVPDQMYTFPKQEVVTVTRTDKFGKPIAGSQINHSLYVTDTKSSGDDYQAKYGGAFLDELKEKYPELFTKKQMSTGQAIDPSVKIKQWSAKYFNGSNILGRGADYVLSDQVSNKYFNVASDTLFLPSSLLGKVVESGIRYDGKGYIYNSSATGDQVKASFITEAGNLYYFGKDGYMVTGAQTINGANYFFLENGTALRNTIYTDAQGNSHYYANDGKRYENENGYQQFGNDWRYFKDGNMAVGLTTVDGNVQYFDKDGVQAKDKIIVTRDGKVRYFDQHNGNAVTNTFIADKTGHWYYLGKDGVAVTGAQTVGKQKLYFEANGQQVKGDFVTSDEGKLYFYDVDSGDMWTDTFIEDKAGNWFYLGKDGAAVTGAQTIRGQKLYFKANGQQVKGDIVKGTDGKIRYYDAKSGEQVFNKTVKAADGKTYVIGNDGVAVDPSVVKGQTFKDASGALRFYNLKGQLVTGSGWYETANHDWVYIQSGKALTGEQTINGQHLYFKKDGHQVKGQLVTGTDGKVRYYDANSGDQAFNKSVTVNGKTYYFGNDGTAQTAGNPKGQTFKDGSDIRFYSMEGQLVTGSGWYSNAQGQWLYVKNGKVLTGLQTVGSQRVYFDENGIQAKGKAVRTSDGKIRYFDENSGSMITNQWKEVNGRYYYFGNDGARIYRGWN

OC[C@H](O)[C@@H](O)[C@H](O)[C@H](O)CO[C@H]1O[C@H](CO[C@H]2O[C@H](CO[C@H]3O[C@H](CO[C@H]4O[C@H](CO)[C@@H](O)[C@H](O)[C@H]4O)[C@@H](O)[C@H](O)[C@H]3O)[C@@H](O)[C@H](O)[C@H]2O)[C@@H](O)[C@H](O)[C@H]1O [Isomaltopentaitol, 6^3 -O-α-isomaltosyl isomaltotriitol]
B: inhibition degree on water-insoluble glucan formation: 78% | B: inhibition degree on water-insoluble glucan formation (listed as isomaltopentaitol): ≥ 70%

OC[C@H]1O[C@H](OC[C@H]2O[C@H](OC[C@H]3O[C@H](OC[C@H]4O[C@H](OC[C@H]5OC(O)[C@H](O)[C@@H](O)[C@@H]5O)[C@H](O)[C@@H](O)[C@@H]4O)[C@H](O)[C@@H](O)[C@@H]3O)[C@H](O)[C@@H](O)[C@@H]2O)[C@H](O)[C@@H](O)[C@@H]1O (stereo partly drawn) [Isomaltopentaose, 6^3 -O-α-isomaltosyl isomaltotriose]
B: inhibition degree on water-insoluble glucan formation: 95% | B: inhibition degree on water-insoluble glucan formation (listed as isomaltopentaose): ≥ 70%

OC[C@@H](O)[C@@H](O[C@H]1O[C@H](CO)[C@@H](O[C@H]2O[C@H](CO[C@H]3O[C@H](CO)[C@@H](O)[C@H](O)[C@H]3O)[C@@H](O)[C@H](O)[C@H]2O)[C@H](O)[C@H]1O)[C@H](O)[C@@H](O)CO [Isomaltosyl maltitol, 4^2 -O-α--isomaltosyl maltitol]
B: inhibition degree on water-insoluble glucan formation: 84% | B: inhibition degree on water-insoluble glucan formation (listed as isomaltosyl maltitol): ≥ 70%

OC[C@H]1O[C@H](OC[C@H]2O[C@H](O[C@H]3[C@H](O)[C@@H](O)[C@@H](O[C@H]4[C@H](O)[C@@H](O)C(O)O[C@@H]4CO)O[C@@H]3CO)[C@H](O)[C@@H](O)[C@@H]2O)[C@H](O)[C@@H](O)[C@@H]1O (stereo partly drawn) [Isomaltosyl maltose, 4^2 -O-α-isomaltosyl maltose]
B: inhibition degree on water-insoluble glucan formation: 92% | B: inhibition degree on water-insoluble glucan formation (listed as isomaltosyl maltose): ≥ 70%

OC[C@H](O)[C@@H](O)[C@H](O)[C@H](O)CO[C@H]1O[C@H](CO[C@H]2O[C@H](CO[C@H]3O[C@H](CO)[C@@H](O)[C@H](O)[C@H]3O)[C@@H](O)[C@H](O)[C@H]2O)[C@@H](O)[C@H](O)[C@H]1O [Isomaltotetraitol, 6^2 -O-α-isomaltosyl isomaltitol]
B: inhibition degree on water-insoluble glucan formation: 85% | B: inhibition degree on water-insoluble glucan formation (listed as isomaltotetraitol): ≥ 70%

OC[C@H]1O[C@H](OC[C@H]2O[C@H](OC[C@H]3O[C@H](OC[C@H]4OC(O)[C@H](O)[C@@H](O)[C@@H]4O)[C@H](O)[C@@H](O)[C@@H]3O)[C@H](O)[C@@H](O)[C@@H]2O)[C@H](O)[C@@H](O)[C@@H]1O (stereo partly drawn) [Isomaltotetraose, 6^2 -O-α-isomaltosyl isomaltose]
B: inhibition degree on water-insoluble glucan formation: 94% | B: inhibition degree on water-insoluble glucan formation (listed as isomaltotetraose): ≥ 70%

OC[C@H](O)[C@@H](O)[C@H](O)[C@H](O)CO[C@H]1O[C@H](CO[C@H]2O[C@H](CO)[C@@H](O)[C@H](O)[C@H]2O)[C@@H](O)[C@H](O)[C@H]1O [Isomaltotriitol, 6-O-α-isomaltosyl glucitol]
B: inhibition degree on water-insoluble glucan formation: 80% | B: inhibition degree on water-insoluble glucan formation (listed as isomaltogriitol): ≥ 70%

OC[C@H]1O[C@H](OC[C@H]2O[C@H](OC[C@H]3OC(O)[C@H](O)[C@@H](O)[C@@H]3O)[C@H](O)[C@@H](O)[C@@H]2O)[C@H](O)[C@@H](O)[C@@H]1O (stereo partly drawn) [Isomaltotriose]
B: inhibition degree on water-insoluble glucan formation: 88% | B: inhibition degree on water-insoluble glucan formation (listed as isomaltotriose): ≥ 70%

CO[C@H]1O[C@H](CO)[C@@H](O)[C@H](O)[C@H]1O [Methyl-α-D-Glucose]
A: amounts of water-insoluble glucan formed (sucrose control 300): 258 µg/mL

OC[C@@H](O)[C@@H](O[C@H]1O[C@H](CO[C@H]2O[C@H](CO)[C@@H](O)[C@H](O)[C@H]2O)[C@@H](O)[C@H](O)[C@H]1O)[C@H](O)[C@@H](O)CO [Pannitol, 4-O-α-isomaltosyl glucitol]
B: inhibition degree on water-insoluble glucan formation: 77% | B: inhibition degree on water-insoluble glucan formation (listed as pannitol): ≥ 70%

OC[C@H]1O[C@H](OC[C@H]2O[C@H](O[C@H]3[C@H](O)[C@@H](O)C(O)O[C@@H]3CO)[C@H](O)[C@@H](O)[C@@H]2O)[C@H](O)[C@@H](O)[C@@H]1O (stereo partly drawn) [Panose, 4-O-α-isomaltosyl glucose]
B: inhibition degree on water-insoluble glucan formation: 84% | B: inhibition degree on water-insoluble glucan formation (listed as panose): ≥ 70%
